How the values were obtained:
[1] = Pi dependent fluorescence change of labelled PBP in various solution compositions; format: binding; details: 100 μM Pi added, 7 μM CPM-PBP
Procedure: 3.2 μM MDCC-PBP was in 10 mM PIPES, 1 mM MgCl2 (pH 7.0) at 22° C. Pi was added to 50 μM;
Because very small levels of Pi contamination can affect the observed change on adding Pi and because of variability in the protein activity, the maximum percent increase of fluorescence varies from 400-500%0 Although PBP is very specific for Pi (Luecke & Quiocho, 1990), it was to be used as a probe in the presence of other phosphate species, such as esters or purine nucleotides and so it was important to know at what levels these might interfere with Pi measurements. Several Pi analogues were also tested (Table 2) and only arsenate and vanadate produced significant increases. For a titration of arsenate in a solution of MDCC-PBP, the fluorescence change was used to obtain a dissociation constant of 3 μM. In all cases except arsenate, when subsequently Pi was added, the full fluorescent change was observed. The Pi dependent fluorescence change was measured for a variety of conditions at a single concentration of Pi (Table 2). The change is only slightly affected by pH (7-8) or ionic strength.
The solutions contained 2 μM MDCCPBP (except for [b] 10 μM and [c]
3.2 μM) in 20 mM PIPES (pH 7.0) except where indicated. The solutions
in B had 100 μM Pi added to produce the indicated fluorescence
change. […]

[2] = Fluorescence titration of Pi to labelled PBP to obtain the dissociation constant; format: binding
Procedure: The solution at 20° C. contained […] MDCC-PBP, 1 mM MgCl2, 10 mM PIPES pH 7.0. Aliquots of Pi were added and the fluorescence emission was measured at 465 nm with excitation at 425 nm. The data was corrected for the small amount of dilution;
The solution at 25° C. in 10 mM PIPES, pH 7.0, 1 mM MgCl2 contained 0.28 μM MDCC-PBP. Aliquots of Pi were added and the fluorescence emission was measured as in FIG. 3.
The fluorescence titrations of Pi with CPM-PBP (and MDCC-PBP) were fitted to the following equations using Enzfitter software:
Ratio of fluorescence at a given [Pi ] to that at zero Pi =(Q[Ep ]+[E]-[Ep ])/[E] where
[E ]P=([P]+[E]+K-√(([P]+[E]+K)^2 -4[P][E]))/2
[E]=concentration of CPM-PBP
Q=ratio of fluorescence for CPM-PBP.Pi to that for the unliganded CPM-PBP
The product was characterized in several ways. […] The dissociation constant was determined by titrating Pi at low [MDCC-PBP] and measuring fluorescence (FIG. 4). […] Because Pi binding is very tight, these dissociation constants can be considered only approximate: the fluorescence titration could not be done at sufficiently low concentrations to obtain accurate values of Kd.

[3] = Stopped-flow kinetics of Pi binding to labelled PBP and its release; details: pH 70, 20° C., low ionic strength
Procedure: A. 0.1 μM MDCC-PBP (mixing chamber concentration) in 10 mM PIPES, pH 7.0 was rapidly mixed at 21° C. with different concentrations of Pi in this buffer in a stopped flow apparatus, while fluorescence emission was monitored using a 455 nm cut-off filter, with excitation at 436 nm using a mercury lamp. The curve show a time course with 0.25 μM Pi. […] The best-fit single exponential (65.3 s^-1) is shown by the dashed line, almost completely hidden by the experimental curve.
B. The release kinetics were measured by rapidly mixing 0.125 μM Pi, 0.25 μM MDCC-PBP with 10 μM wild-type PBP (mixing chamber concentrations) at 22° C. Other conditions were as above The best-fit single exponential (21.4 s^-1) is shown by the dashed line, almost completely hidden by the experimental curve;
In order to use the probe to measure Pi release from ATPases and GTPases in real time it was important to know the kinetics of Pi interaction with the labeled protein. Because of the fast rates only part of the exponential is observed: a significant proportion of the reaction occurs during the dead time of the instrument (i.e. the time taken for the solution to flow between mixing and the observation chamber).
The dissociation rate of the MDCC-PBP.Pi complex was measured directly in the stopped flow apparatus by rapid mixing of this complex with excess wild-type PBP. […]

B1: CPM-PBP: A197C mutant of E. coli phosphate binding protein labelled on the cysteine with CPM (conjugate, UniProt P0AG82 26-346, looked up, variant A197C)
Phosphate-binding protein PstS: EASLTGAGATFPAPVYAKWADTYQKETGNKVNYQGIGSSGGVKQIIANTVDFGASDAPLSDEKLAQEGLFQFPTVIGGVVLAVNIPGLKSGELVLDGKTLGDIYLGKIKKWDDEAIAKLNPGLKLPSQNIAVVRRADGSGTSFVFTSYLAKVNEEWKNNVGTGSTVKWPIGLGGKGNDGIAAFVQRLPGAIGYVEYCYAKQNNLAYTKLISADGKPVSPTEENFANAAKGADWSKTFAQDLTNQKGEDAWPITSTTFILIHKDQKKPEQGTEVLKFFDWAYKTGAKQANDLDYASLPDSVVEQVRAAWKTNIKDSSGKPLY
modifications: CPM fluorophore label on cysteine
% fluorescence increase ([1]; 10 mM Tris-HCl (pH 8.0), 50 mM NaCl): 63%
% fluorescence increase ([1]; 10 mM Tris-HCl (pH 8.0), 100 mM NaCl): 45%
% fluorescence increase ([1]; 10 mM Tris-HCl (pH 8.0), 500 mM NaCl): 32%
% fluorescence increase ([1]; 20 mM PIPES (pH 7.0)): 37%
% fluorescence increase ([1]; 20 mM Tris-HCl (pH 7.0)): 44%
% fluorescence increase ([1]; 20 mM Tris-HCl (pH 7.5)): 60%
% fluorescence increase ([1]; 20 mM Tris-HCl (pH 8.0)): 69%
enhancement (fluorescence, titration) ([2]; pH 7.0 (10 mM PIPES)): 63%
enhancement (fluorescence, titration) ([2]; pH 8.0 (10 mM Tris HCl)): 105%
Pi binding rate constant [3]: 3.6e+07 M⁻¹ s⁻¹

Source: patent publication US5898069A, “Phosphate assay” (Medical Research Council, priority 1993, dated 1999)
